# Data: PubChem BioAssay AID662 (National Center for Advancing Translational Sciences (NCATS), 2007)
# Screen size: about 71,000 compounds; about 1,800 (2.5%) were called active. Inconclusive means that the source gave no clear call. Such entries were picked first, then a sample of the others. Calls come from the whole dose curve; as a rule, active = well fitted activation curve with a large enough effect in the signal ratio, with a control signal flat (not every such curve was filed as active); inconclusive = small, poorly fitted or top-dose-only effect, or effect the other way, or a change in a side signal; inactive = flat fitted curve, though single readings scatter; the % refers to the signal ratio. Where the call is inconclusive, the potency comes from a doubtful curve fit.
# Assay: Cell signaling CRE-BLA (Fsk stim); for activity change, negative = inhibition: % of control where 0% means no effect
# Conditions: CHO CRE-bla reporter (cAMP response element driving beta-lactamase), forskolin EC10, beta-lactamase ratio
# Procedure, shortened: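 Modulation of forskolin-driven signalling is measured in CHO cells carrying a CRE-controlled beta-lactamase reporter. Cells are stimulated with EC10 NKH 477 in the presence of titrated compound for 3 h at 37 °C, then loaded with CCF4 for 2 h at room temperature.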
# [1] = activity change, negative = inhibition: at 38.2 µM (top of the series) unless noted
# Potency is the fitted concentration of half-maximal effect; tags give direction and shape of the fitted curve.
structure (smiles),measurement,setting,value
O=C(Oc1ccc2c3c(c(=O)oc2c1)CCCC3)c1ccco1,Potency,[1],"inconclusive: 10 µM [rising, partial curve]"
C[C@@H](NC(=O)/C(C#N)=C/c1ccc(O)c(O)c1)c1ccccc1,"activity change, negative = inhibition",[1],inconclusive: 27.7%
O=C(Nc1ccc2c(c1)OCCO2)c1ccc2nccnc2c1,"activity change, negative = inhibition",[1],inactive
O=C(Nc1ccc(Br)cc1F)c1ccc2c(c1)N(Cc1ccccc1)C(=O)CS2=O (configuration not stated),"activity change, negative = inhibition",[1],inactive
O=c1cc(N2CCN(Cc3ccccc3)CC2)[nH]c(=O)n1Cc1ccc(F)cc1,"activity change, negative = inhibition",[1],inconclusive: 25.6%
O=C(O)c1ccncc1.O=C(O)c1ccncc1.[NH2-].[NH2-].[Pt],"activity change, negative = inhibition",[1],inactive: -0.637% [at 7.6 µM]
Clc1ccc2nc(NC3=NCN(CCN4CCOCC4)CN3)nc(-c3ccccc3)c2c1,"activity change, negative = inhibition",[1],inconclusive: 11.6%
CC1CCc2cc(F)ccc2N1C(=O)CN1C(=O)c2ccccc2C1=O (configuration not stated),"activity change, negative = inhibition",[1],inactive
COc1cc(-c2nnc(SCC(=O)c3cc(C)n(CC4CCCO4)c3C)o2)cc(OC)c1OC (configuration not stated),Potency,[1],active: 3.98 µM
CCOc1cc(C2NC(=O)NC(C)=C2C(=O)OCc2ccccc2)ccc1O (configuration not stated),"activity change, negative = inhibition",[1],inconclusive: 18.2%
CCCCCN=Cc1c(C)[nH]n(-c2nc3ccccc3s2)c1=O,Potency,[1],"inconclusive: 5.01 µM [rising, single point]"
Cc1ccc(-c2nc(C#N)c(N3CCCCC3)o2)cc1,"activity change, negative = inhibition",[1],inactive
CCc1ccc2[nH]c(=O)c(C(c3nnnn3CCOC)N3CCN(c4ccc(F)cc4)CC3)cc2c1 (configuration not stated),"activity change, negative = inhibition",[1],inactive
CNCC[C@H](Oc1ccccc1OC)c1ccccc1,"activity change, negative = inhibition",[1],inconclusive: -27.1%
same,"activity change, negative = inhibition",at 17.1 µM (top of the series),inactive: 2.07%
same,"activity change, negative = inhibition",at 38.2 µM (top of the series),inactive: -2.84%
OCCCN1c2ccccc2Nc2nnc(-c3ccccc3)cc21,"activity change, negative = inhibition",[1],inconclusive: 17%
COc1ccccc1NC(=O)c1ccccc1NS(=O)(=O)N1CCCC1,"activity change, negative = inhibition",[1],inactive
O=C(c1noc2c1CCc1ccccc1-2)N1CCOCC1,"activity change, negative = inhibition",[1],inactive
CCOC(=O)Nc1nnc(-c2ccc(OC)c(OC)c2)s1,Potency,[1],"inconclusive: 6.31 µM [rising, partial curve]"
O=C(NCCN1C(=O)C2C3C=CC(C3)C2C1=O)Nc1ccccc1O (configuration not stated),"activity change, negative = inhibition",[1],inactive
COC(=O)CSc1nnc(-c2cccc(NC(=O)c3ccc(C)cc3)c2)n1C,"activity change, negative = inhibition",[1],inconclusive: 22.9%
CC(=O)NC(Cc1ccccc1)C(=O)NC1CCN(C(=O)c2cnccn2)CC1 (configuration not stated),"activity change, negative = inhibition",[1],inconclusive: 27.3%
N#Cc1c(N)sc(=S)c2c1CCN(Cc1ccccc1)C2,"activity change, negative = inhibition",[1],inactive
Cc1ccccc1Cn1ccc(NC(=O)c2cc3nc(-c4ccco4)cc(C(F)(F)F)n3n2)n1,Potency,[1],"inconclusive: 2.51 µM [rising, full curve]"
O=C(CSc1n[nH]c(-c2ccc(S(=O)(=O)NC3CCCCC3)cc2)n1)N1CCCC1,"activity change, negative = inhibition",[1],inactive
CC(Oc1ccccc1)C(=O)Nc1ccc(S(=O)(=O)NCC2CCCO2)cc1 (configuration not stated),"activity change, negative = inhibition",[1],inactive
O=C(c1cccc(F)c1)N1CCC[C@@]2(CCN(C(c3ccccc3)c3ccccc3)C2)C1,"activity change, negative = inhibition",[1],inactive
COc1cccc(C2Nc3ccccc3C(=O)N2O)c1O (configuration not stated),Potency,[1],"inconclusive: 12.6 µM [falling, partial curve]"
CC(C)(C)n1nnnc1C(c1cccnc1)N1CCN(C2CCCCC2)CC1 (configuration not stated),"activity change, negative = inhibition",[1],inconclusive: 9.34%
C=CCOC(=O)C1=C(C)NC(SCC(=O)NC(=O)OCC)=C(C#N)C1c1cccnc1 (configuration not stated),Potency,[1],"inconclusive: 12.6 µM [rising, partial curve]"
COc1cc(C(=O)N2CCC(NC(=O)C(Cc3ccc(C)cc3)NC(C)=O)CC2)cc(OC)c1OC (configuration not stated),"activity change, negative = inhibition",[1],inconclusive: 3.85%
COC(=O)C1CCN(C(=O)C23CCC(C)(C(=O)O2)C3(C)C)CC1 (configuration not stated),"activity change, negative = inhibition",[1],inconclusive: -6.14%
COc1ccc(O)c(C(=O)c2cc(C#N)c(=O)n(-c3c(C)n(C)n(-c4ccccc4)c3=O)c2)c1,Potency,[1],"inconclusive: 3.16 µM [falling, single point]"
CSc1nc(N(CCO)CCO)c2sc3nc(-c4ccco4)c4c(c3c2n1)CCC4,"activity change, negative = inhibition",[1],inconclusive: 28.3%
CC(=O)c1cc2c(O)c(O)ccc2o1,Potency,[1],"inconclusive: 6.31 µM [rising, single point]"
CC(C)(C)c1nnc2sc(SCC(=O)N3CCCc4ccccc43)nn2c1=O,"activity change, negative = inhibition",[1],inconclusive: -33.5%
COc1cccc(/C=N/n2c(C)c3c(C)nnc(C)c3c2C)c1O,"activity change, negative = inhibition",[1],inconclusive: -12.5%
COC(=O)c1c(NC(=O)c2ccc(S(=O)(=O)N3CCOCC3)cc2)sc2c1CCN(C)C2,Potency,[1],"inconclusive: 12.6 µM [rising, partial curve]"
CCCCn1c(=NC(=O)c2cccnc2)c(C(=O)OCC)cc2c(=O)n3ccccc3nc21,Potency,[1],"inconclusive: 1 µM [rising, partial curve]"
COCC(=O)N1CCC2(CC1)CN(Cc1nccs1)C2,"activity change, negative = inhibition",[1],inactive
COC(=O)c1cn(NC(=O)c2ccncc2)c(=O)c2ccccc12,"activity change, negative = inhibition",[1],inactive
COc1ccccc1CC(NC(C)=O)C(=O)NC1CCN(c2nnnn2-c2ccccc2)CC1 (configuration not stated),"activity change, negative = inhibition",[1],inconclusive: 0.533%
CC(=O)Nc1nc(C=C(Cl)Cl)cs1,"activity change, negative = inhibition",[1],inconclusive: 19.1%
C=CCn1cc(C(=O)NCCCOC)c(=O)c2cc(S(=O)(=O)N(CC)CC)ccc21,"activity change, negative = inhibition",[1],inconclusive: 14.7%
COc1ccccc1N1CCN(CC(O)c2ccc3cc[nH]c3c2)CC1 (configuration not stated),Potency,[1],"inconclusive: 7.94 µM [falling, partial curve]"
COc1ccc(CNc2nc(-c3cccnc3)nn2C(=O)c2ccco2)cc1,"activity change, negative = inhibition",[1],inactive
COc1cc(C2NC(=O)N(C)C3=C2C(=O)CCC3)cc(OC)c1OC (configuration not stated),Potency,[1],"inconclusive: 3.98 µM [rising, single point]"
O=C(CN1C(=O)CCC1=O)Nc1ccc(S(=O)(=O)N2CCOCC2)cc1,"activity change, negative = inhibition",[1],inconclusive: -6.98%
O=C(NC1CCCCC1)c1ccc(Cn2cc(Br)cn2)o1,"activity change, negative = inhibition",[1],inactive
Cc1nc(SCC(=O)NCc2ccco2)c2oc3ccccc3c2n1,Potency,[1],"inconclusive: 5.01 µM [rising, partial curve]"
Cc1c[nH]c(=O)n(CCCN2CCN(c3ccccc3OCC(F)(F)F)CC2)c1=O,"activity change, negative = inhibition",[1],inconclusive: -20.9%
Cc1noc(C)c1-c1nc(NC2CCNCC2)c2ccccc2n1,"activity change, negative = inhibition",[1],inconclusive: 26.4%
O=C1CCc2cc(OCCCCc3nnnn3C3CCCCC3)ccc2N1,"activity change, negative = inhibition",[1],inconclusive: 11.6%
Cc1ccc(C)c(NC(=O)CC(NCCCN2CCOCC2)C(=O)O)c1 (configuration not stated),"activity change, negative = inhibition",[1],inconclusive: -13.9%
CCOc1cc(C2c3c(n[nH]c3C)C(=O)N2c2ccc(Br)cc2)ccc1O (configuration not stated),Potency,[1],"inconclusive: 10 µM [falling, partial curve, poor fit]"
O=C(Nc1ccc(S(=O)(=O)NC2CCCC2)cc1)c1cnccn1,Potency,[1],"inconclusive: 10 µM [rising, partial curve]"
CCOC(=O)c1c(N)nn(C(C)=O)c1-c1ccccc1,Potency,[1],"inconclusive: 15.8 µM [rising, partial curve]"
Cc1nc2nc(-c3ccco3)nn2c(C)c1Cl,Potency,[1],"inconclusive: 25.1 µM [rising, single point]"
CCN1CCN(c2c(Cl)cccc2NC(=O)c2ccc(Br)o2)CC1,"activity change, negative = inhibition",[1],inconclusive: 11.1%
CCNc1ncc2nc(C)c(=O)n(C[C@H]3CCCO3)c2n1,Potency,[1],active: 10 µM
CC(C)NC(=O)[C@@H]1C[C@H]1[C@@H](NC(=O)OCc1ccccc1)c1ccccc1,"activity change, negative = inhibition",[1],inactive
COc1cccc(-c2nn(C)c3sc(C(=O)N4CCN(c5ccccn5)CC4)cc23)c1,Potency,[1],"inconclusive: 20 µM [falling, single point]"
O=C(Nc1nncs1)C1c2ccccc2Oc2ccccc21,"activity change, negative = inhibition",[1],inactive
Cn1c(=O)c(-c2ccc(F)cc2)nc2cnc(Nc3ccccc3)nc21,Potency,[1],active: 0.631 µM
CSCCOC(=O)c1[nH]c2c(c1C)C(=O)CC(c1ccco1)C2 (configuration not stated),Potency,[1],active: 7.94 µM
CCn1c(=O)c(C(=O)NCc2ccc(OC)c(OC)c2)c(O)c2ccccc21,Potency,[1],active: 1.58 µM
O=C(NCc1ccc(Cl)cc1Cl)c1ccccn1,"activity change, negative = inhibition",[1],inconclusive: -13.6%
Cc1nc2ccccc2c(=O)n1/N=C/c1cccnc1,Potency,[1],"inconclusive: 10 µM [rising, single point]"
CCOC(=O)C1CCCN(C(=O)c2cc(Nc3ccc(OC)c(OC)c3)nc3ccccc23)C1 (configuration not stated),Potency,[1],"inconclusive: 2 µM [rising, full curve, poor fit]"
Cc1cc(C)nc(N2CCCC(C(=O)NCCc3cccc(F)c3)C2)n1 (configuration not stated),Potency,[1],"inconclusive: 10 µM [falling, single point]"
CCOCCCNC(=O)c1cccs1,"activity change, negative = inhibition",[1],inconclusive: 10.4% [at 7.6 µM]
CCOc1ccc(NS(=O)(=O)c2ccc3c(c2)CCN3C(=O)CCC(=O)O)cc1,"activity change, negative = inhibition",[1],inconclusive: -4.3%
N#Cc1cccc(-c2ccc3ncnc(NCc4ccccc4)c3c2)c1,Potency,[1],"inconclusive: 6.31 µM [rising, partial curve]"
O=C(CCn1cnc2ccccc2c1=O)Nc1cccc(Cl)c1,Potency,[1],"inconclusive: 20 µM [rising, partial curve, poor fit]"
CCC(=O)N1CCc2cc(S(=O)(=O)CCC(=O)NCCc3ccc(OC)c(OC)c3)ccc21,"activity change, negative = inhibition",[1],inconclusive: 12.2%
Nc1nc(CN2CCN(c3ccccn3)CC2)nc(Nc2ccc(Cl)cc2)n1,"activity change, negative = inhibition",[1],inactive
Cc1cc(C)n2c(=S)[nH]nc2n1,"activity change, negative = inhibition",[1],inconclusive: -5.05%
CCOC(=O)CC(=O)CSc1nc(C)nc2c1oc1ccccc12,Potency,[1],active: 10 µM
O=C(O)[C@H]1C[C@@H](CP(=O)(O)O)CCN1,"activity change, negative = inhibition",[1],inconclusive: 0.212%
CCCn1c(=N)c(C(=O)NCc2ccc3c(c2)OCO3)cc2c(=O)n3cccc(C)c3nc21,Potency,[1],"inconclusive: 10 µM [rising, single point]"
NC(=O)CCN(Cc1ccccc1)S(=O)(=O)c1ccccc1,"activity change, negative = inhibition",[1],inconclusive: 6.23% [at 7.6 µM]
